Results: article PMC4336329 (PLoS ONE, 2015)
The whole screen tested about 310,000 compounds, of which about 14,000 (4.5%) showed an effect of 50% or more. Effects have a minus sign here. Some of the results follow.

Each compound was assayed against human ether-à-go-go-related gene (hERG) potassium channel (human, UniProt Q12809) (assay: primary screen, population patch clamp on CHO cells stably expressing hERG).
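Note: peak tail current of the secondary pulse compared with the same well before compound.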

human ether-à-go-go-related gene (hERG) potassium channel, sequence (Q12809 whole entry, looked up): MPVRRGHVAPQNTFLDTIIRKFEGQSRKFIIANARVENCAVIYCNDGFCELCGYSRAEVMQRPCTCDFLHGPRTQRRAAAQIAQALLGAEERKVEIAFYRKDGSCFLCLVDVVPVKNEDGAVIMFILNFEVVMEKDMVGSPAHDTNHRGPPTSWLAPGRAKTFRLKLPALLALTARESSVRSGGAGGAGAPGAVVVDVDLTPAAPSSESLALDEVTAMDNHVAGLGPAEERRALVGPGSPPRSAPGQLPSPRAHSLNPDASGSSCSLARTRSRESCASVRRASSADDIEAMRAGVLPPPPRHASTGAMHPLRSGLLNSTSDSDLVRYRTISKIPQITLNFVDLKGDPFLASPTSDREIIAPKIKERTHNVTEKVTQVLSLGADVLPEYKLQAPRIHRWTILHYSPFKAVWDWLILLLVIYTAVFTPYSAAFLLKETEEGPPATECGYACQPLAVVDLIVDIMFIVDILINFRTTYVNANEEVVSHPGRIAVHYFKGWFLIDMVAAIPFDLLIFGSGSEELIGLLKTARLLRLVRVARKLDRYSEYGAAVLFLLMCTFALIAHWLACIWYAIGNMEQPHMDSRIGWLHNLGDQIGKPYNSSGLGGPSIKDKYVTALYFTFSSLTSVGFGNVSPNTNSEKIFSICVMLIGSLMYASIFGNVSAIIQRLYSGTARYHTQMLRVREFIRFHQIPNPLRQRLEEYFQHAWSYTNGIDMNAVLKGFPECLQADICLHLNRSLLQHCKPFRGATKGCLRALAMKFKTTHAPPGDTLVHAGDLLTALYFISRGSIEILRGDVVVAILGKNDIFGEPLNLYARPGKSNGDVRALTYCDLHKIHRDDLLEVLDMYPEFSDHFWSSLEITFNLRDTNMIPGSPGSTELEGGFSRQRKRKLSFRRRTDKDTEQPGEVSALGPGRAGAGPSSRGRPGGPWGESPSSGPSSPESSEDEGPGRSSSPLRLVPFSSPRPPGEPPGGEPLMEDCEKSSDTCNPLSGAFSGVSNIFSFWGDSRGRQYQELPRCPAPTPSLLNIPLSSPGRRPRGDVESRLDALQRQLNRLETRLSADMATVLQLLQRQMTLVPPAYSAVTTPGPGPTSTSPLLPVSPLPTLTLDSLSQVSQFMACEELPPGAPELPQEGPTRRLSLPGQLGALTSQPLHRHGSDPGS

SMILES | hERG current change (%, negative = inhibition) at 10uM
C=CCc1cc(Cl)ccc1OCCn1ccnc1.O=C(O)C(=O)O | -10.1%
COc1ccc(/C(O)=C2/C(=O)C(=O)N(CCCN3CCOCC3)C2c2ccc(C)cc2)cc1 (stereo not drawn) | 18.8%
CC1=C(C(=O)Nc2ccccn2)C(c2ccc(F)cc2)n2ncnc2N1 (stereo not drawn) | -13.1%
COc1ccc(C(C)=O)cc1CN1C(=O)NC2(CCCCC2)C1=O | -3.62%
CN(C)C(CNC(=S)Nc1cccc(Cl)c1)c1ccccc1 (stereo not drawn) | -35.3%
O=C(O)c1cc(-c2ccc3c(c2)OCCO3)n[nH]1 | 9.83%
c1ccc2[nH]c(SCc3ccc(-c4nnco4)cc3)nc2c1 | -3.93%
NNC(=O)C(Cc1ccc(O)cc1)N1Cc2ccccc2C1=O (stereo not drawn) | 14.7%
CCS(=O)(=O)C1=NN2C(=N)/C(=C\c3ccc(OS(=O)(=O)c4ccccc4)cc3)C(=O)N=C2S1 | 15.2%
CC(C)c1nnc(NC(=O)c2cccc(-n3cnnn3)c2)s1 | 4.79%
CSc1nc2n(n1)C(C)C1=C(CCCC1=O)N2 (stereo not drawn) | 19%
Cc1nn(-c2ccc(Cl)c(Cl)c2)c(C)c1C(=O)O | 31%
COc1ccccc1CCC(=O)OCc1csc(CC(=O)Nc2ccccc2C)n1 | -9.67%
CN1CCN(/N=C/c2c(O)n(CCC3=CCCCC3)c(=S)[nH]c2=O)CC1 | -64.9%
Nc1cc([N+](=O)[O-])ccc1O | 6.95%
O=C(CN(CC1CCCO1)C(=O)CNS(=O)(=O)c1ccc(Cl)cc1)NC1CCCCC1 (stereo not drawn) | -5.15%
CN(C)S(=O)(=O)c1cccc(NC(=O)c2ccc3nccnc3c2)c1 | -11.5%
O=C(O)c1ccccc1NS(=O)(=O)c1cccc2cccnc12 | -11.4%
Cc1cccc(N2C(=O)c3cccc(Oc4ccc(Cl)cc4)c3C2=O)c1 | 4.76%
COc1ccc(CSc2n[nH]c(C)n2)cc1[N+](=O)[O-] | 26.2%
CC1=Cc2ccccc2C(C#N)N1C(=O)c1ccccc1 (stereo not drawn) | -11.3%
Cc1cc(C)nc(NC(=O)/C=C/c2ccccc2Cl)n1 | -1.84%
O=C(N=Nc1c(O)[nH]c(=O)[nH]c1=O)C1COc2cc3ccccc3cc2O1 (stereo not drawn) | 13.2%

SMILES | hERG current change (%, negative = inhibition) at 10uM
Cc1ccc(NC(=O)CSc2nnc([C@H](C)NC(=O)OC(C)(C)C)o2)c(C)c1 | -6.67%
O=C(c1cnn2ccccc12)N(Cc1ccco1)C1CCCC1 | 4.7%
COc1ccc(Cl)cc1C(=O)C1CCCN(Cc2cnc(C)s2)C1 (stereo not drawn) | -38.1%
Nc1c(Cl)cc(-c2csc(NCCc3nc4cc(Cl)c(Cl)cc4n3CCCO)n2)cc1Cl | 19.4%
COc1ccccc1CNS(=O)(=O)c1ccc(-n2cnnn2)c(C)c1 | 7.04%
Cc1csc(SCC(=O)N(C)CC(=O)Nc2ccccc2Cl)n1 | -27.8%
O=C(NC1CC1)C1CCN(c2ccc(S(=O)(=O)N3CCOCC3)cc2)CC1 | 0.346%
Cc1cc(C(=O)NC2=NCCS2)c2ccccc2n1 | 10.9%
Cn1cc(C=C2C(=O)CC(C)(C)CC2=O)c2ccccc21 | 14.3%
Cc1ccccc1Cc1c(C)nc2nc(SCC(=O)NCCCN3CCCC3)nn2c1C | 10.8%
CC1NC(=S)N(Cc2ccccc2)C1=O (stereo not drawn) | 12.9%
COc1cccc(CNC(=O)C(NS(=O)(=O)c2ccc3c(c2)CCN3C(C)=O)C(C)C)c1 (stereo not drawn) | 15.8%
CN(C)S(=O)(=O)c1ccc(N2CCOCC2)nc1 | 12%
O=C(N/N=C/c1ccccc1OC(F)F)C1=COCCO1 | -7.69%
CN(C)CCN1C(=O)C(O)=C(C(=O)c2cc3ccccc3o2)C1c1ccc(N(C)C)cc1 (stereo not drawn) | 0.454%
CCCC/C(C)=N/NC(=O)CN(c1ccc(Br)cc1)S(=O)(=O)c1ccccc1 | -12.4%
CC12CCCC[C@@H]1CCC1C2CCC2(C)C1CC[C@@]2(O)CNCCO (stereo partly drawn) | 15%
CC1CCCN(C(=O)CSc2cnc3ccccc3n2)C1 (stereo not drawn) | -12.5%
O=C(c1cnn(-c2ccccc2)c1)c1ccc2ccccc2c1O | 11.9%
CCOC(=O)N1CCC(n2c(SCC(=O)N3CCC(C)CC3)nc3ccccc3c2=O)CC1 | -47.9%
CCC(=O)NC(c1ccc(Cl)cc1Cl)c1ccc2cccnc2c1O (stereo not drawn) | -0.357%
CC1CCCC(C)N1C(=O)COC(=O)c1ccc2c(c1)OCO2 (stereo not drawn) | 4.65%
